From PubChem BioAssay AID1508642 (National Center for Advancing Translational Sciences (NCATS), 2021)
The campaign covered roughly 43,000 compounds. About 200 (0.47%) were called active. Not shown: some 12% with an inconclusive outcome. Calls follow the shape of the dose curve; as a rule, active = well fitted cell-killing curve with a large enough effect; inconclusive = small, poorly fitted or top-dose-only effect, or effect the other way; inactive = flat fitted curve, though single readings scatter. This is one part of the list.

Test: Cell viability qHTS assay in S16 Pmp22-F2sN cells; also: nearly all actives have a fitted effect of over 65% in size
Details: S16 Pmp22-F2sN Schwann cells viability, CellTiter-Glo, 24 h; series mostly up to 57.5 µM; activity change, negative = cytotoxicity: at the top concentration
Method in brief: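 Used to flag compounds lowering reporter output through toxicity, this quantitative HTS measures ATP-based CellTiter-Glo luminescence in S16 Pmp22-F2sN Schwann cells after 24 h compound exposure at 37C.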
% is scaled to controls: 0 for no effect and ±100 for the full control effect.

SMILES	activity change, negative = cytotoxicity
COc1ccc(-c2ccc(=O)n(CC(=O)Nc3ccc(C)cc3C)n2)cc1	inactive: 5.89%
COc1ccc(-c2noc(CCC(=O)NCc3ccc(C)cc3)n2)cc1	inactive: 7.88%
O=c1n(Cc2cccc(C(F)(F)F)c2)c2ccccc2c2nc(-c3ccccc3)nn12	inactive: 12.6%
Cc1ccc(NS(=O)(=O)c2ccc3[nH]c(=O)ccc3c2)cc1N(C)C	inactive: -2.81%
Cc1ccc(NC(=O)c2cc(C)nc3c2c(C)nn3-c2cccc(Cl)c2C)c(C)c1	inactive: 2.66%
CCc1ccc2oc(C(=O)Nc3cccc(C(F)(F)F)c3)cc(=O)c2c1	inactive: -4.25%
CSc1nn(Cc2ccc(Cl)cc2)c(N(C(C)=O)C(C)=O)c1S(=O)(=O)c1ccccc1	inactive: 6.99%
COc1ccc(OC)c(CCNc2ncnc3onc(-c4ccc(F)cc4)c23)c1	inactive: -2.3%
Fc1cc(Br)ccc1Nc1c2c(nc3nc(-c4cccs4)nn13)CCCC2	inactive: -26.1%
O=C1CCCc2cc(S(=O)(=O)NCC3CCC(C(=O)Nc4ccccc4F)CC3)ccc2N1 (stereo unspecified)	inactive: -6.2%
CC(NC(=O)c1ccccc1NC(=O)c1nsc2ccccc12)c1ccccc1 (stereo unspecified)	inactive: -0.654%
CC(=O)c1ccc(NC(=O)C2=CC(c3ccc4c(c3)OCO4)=NS(=O)(=O)N2C)cc1	inactive: -7.15%
CCCCOc1ccc(C(=O)N2CCN(CCc3ccccn3)CC2)cc1	inactive: 5.12%
COC(=O)c1ccc(OC)c(Cn2c(=O)n(Cc3ccccc3)c(=O)c3c2c2cc(OC)ccc2n3C)c1	inactive: 19.8%
CSc1ccc(-c2nc3ccc(C)cn3c2Nc2ccccc2C)cc1	inactive: 8.57%
CS(=O)(=O)N(CC(=O)NCCc1ccccc1)c1cc(C(F)(F)F)ccc1Cl	inactive: -2.04%
Cc1cccc(-c2nnn3c2nc(NCCc2ccc(S(N)(=O)=O)cc2)c2cc(Cl)ccc23)c1	inactive: 3.41%
COc1ccc(N2CCN(C(=O)c3cc4ccc5cccnc5c4[nH]3)CC2)cc1	inactive: 5.64%
O=C(NCC12CC3CC(CC(C3)C1)C2)c1cc2nc(-c3ccccc3)cc(C(F)(F)F)n2n1	inactive: 14.3%
Cc1cccc(Oc2nc3c(c(=O)n(C)c(=O)n3C)n2C)c1	inactive: -17.1%
COc1ccc(OC)c2sc(N3CCN(C(=O)C4CC4)CC3)nc12	inactive: -17.7%
COc1ccc(S(=O)(=O)n2ccnc2)cc1C(C)(C)C	inactive: 10.6%
CCc1ccccc1N1C(=O)N(Cc2ccccc2C)c2ccccc2S1(=O)=O	inactive: -3.79%
COc1ccccc1NC(=O)c1cnc(SCC(=O)N2CCCc3ccccc32)n(C)c1=O	inactive: 4.25%

SMILES	activity change, negative = cytotoxicity
COc1ccc(OC)c(-n2cnc3cc(C(=O)NC4CCCCCC4)ccc32)c1	inactive: 18.1%
Cc1ccc(NC(=O)Cn2cc3c(n2)CCCCC3)cc1	inactive: -7.46%
CCOC(=O)c1ccccc1NC(=O)c1cc2c(=O)oc3ccc(C)cc3c2s1	inactive: 3.53%
COc1ccccc1CNC(=O)CN1C(=O)CSc2ccc(S(=O)(=O)N3CCCCC3)cc21	inactive: 6.01%
COC(=O)c1c(Oc2ccc(C(C)=O)cc2)nnc(-c2ccccc2)c1-c1ccccc1	inactive: -9.6%
CCN(c1ccccc1)c1ncnc2c1cnn2-c1ccc(C)cc1C	inactive: -0.162%
CCc1ccc(C2CC(=O)Nc3cc4c(cc32)OCO4)cc1 (stereo unspecified)	inactive: 1.98%
CCOC(=O)c1noc2nc(C)n(CC(=O)Nc3ccccc3F)c(=O)c12	inactive: -7.5%
O=C(Nc1ccc(Cl)cc1Cl)c1cc(S(=O)(=O)N2CCc3ccccc32)ccc1F	inactive: -3.57%
Cc1oc2ncn(C)c(=O)c2c1C(=O)N1CCN(c2ccccc2)CC1	inactive: 6.55%
O=C(Oc1ccc(F)cc1)c1nc(SCc2ccccc2F)ncc1Cl	inactive: 4.71%
COc1ccccc1C(=O)NC1(C(F)(F)F)C(=O)Nc2c1c(=O)[nH]c(=O)n2-c1ccccc1 (stereo unspecified)	inactive: 2.8%
CCn1c(CNC(=O)C23CC4CC(CC(C4)C2)C3)nnc1SCC(=O)Nc1ccccc1	inactive: 3.34%
Cc1ccc(C)c(OCCn2cc(C(=O)c3ccco3)c3ccccc32)c1	inactive: 13.3%
COc1ccc(-c2nc(CNS(=O)(=O)c3ccccc3)cs2)cc1	inactive: -3.55%
CC1CCCN(CCCNC(=O)c2cn(C)c3ccc(S(=O)(=O)N(C)C4CCCCC4)cc3c2=O)C1 (stereo unspecified)	inactive: -1.65%
Cc1ccc(NS(=O)(=O)c2ccc3nc(-c4ccccc4)[nH]c3c2)c(Cl)c1	inactive: -13.4%
Cn1c(=O)c2c([nH]c(=O)n2Cc2ccc(Cl)cc2Cl)n(C)c1=O	inactive: 3.98%
Cc1ccc2c(c1)-c1nc(-c3ccc4c(c3)NC(=O)CO4)cc(-c3ccc(Cl)cc3)c1CO2	inactive: -0.266%
Cc1oc2ncn(CC(C)C)c(=O)c2c1C(=O)Nc1cc(F)ccc1F	inactive: -5.26%
COc1ccccc1CNC(=O)c1ccc2c(c1)N(Cc1cccc(Cl)c1)C(=O)c1ccccc1S2(=O)=O	inactive: 0.927%
Cc1ccc(Cn2c(C(=O)O)c(CNC3CCCCCC3)c3ccc(C)cc32)cc1	inactive: 20%
CC(=O)c1ccc(NC(=O)Cn2c(=O)c3cccn3c3ccccc32)cc1	inactive: -0.112%
COc1ccccc1N1CCN(S(=O)(=O)c2ccc3[nH]c4c(c3c2)CCCC4)CC1	inactive: -15.1%

SMILES	activity change, negative = cytotoxicity
CCC(=O)N1CCc2cc(Br)cc(S(=O)(=O)CCC(=O)N3CCN(c4ccccc4OC)CC3)c21	inactive: -4.84%
COc1ccc(-c2ccnc3[nH]n(-c4ccccc4)c(=O)c23)cc1	inactive: -0.925%
CCc1ccc(NC(=O)C2CCCN(S(=O)(=O)c3ccc4c(c3)CCCN4C(C)=O)C2)cc1 (stereo unspecified)	inactive: -5.21%
COc1ccc(C(=O)N2CC(=O)Nc3ccc(C)cc3C2c2ccccc2)c(OC)c1 (stereo unspecified)	inactive: 3.73%
Cc1ccc(-n2ncc(C(=O)N3CCCCC3)c2C2CCN(C(=O)OC(C)(C)C)CC2)cc1C	inactive: 11.6%
CCOc1cc(-c2nnc(SCC(=O)NCc3ccccc3)nc2-c2ccc(OC)c(OCC)c2)ccc1OC	inactive: 7.13%
COc1ccc(/C=C\c2onc(C)c2S(=O)(=O)N2CCC(C(=O)Nc3ccc(Cl)cc3)CC2)cc1	inactive: 13.3%
Cc1ccc(NC(=O)c2ccc3snnc3c2)cc1Cl	inactive: -2.44%
CCc1ccc(S(=O)(=O)c2nnn(-c3ccc(F)cc3)c2N)cc1	inactive: -11.8%
COc1ccc(OCc2ccc(-c3nc(C#N)c(N4CCC(C)CC4)o3)o2)cc1	inactive: -2.5%
CCCNC(=O)C(=O)NCC(c1ccc2c(c1)OCO2)N1CCOCC1 (stereo unspecified)	inactive: 10.2%
Cc1ccccc1NC(=O)C1CCC(CNS(=O)(=O)c2ccc3c(c2)C(C)(C)C(=O)N3C)CC1 (stereo unspecified)	inactive: -23.8%
Cc1cc(NS(=O)(=O)c2ccc(NC(=O)c3ccccc3F)cc2)nc(C)n1	inactive: 2.29%
CCOc1ccc(CCNC(=O)c2cn(C)c3ccc(S(=O)(=O)N4CCOCC4)cc3c2=O)cc1OCC	inactive: 3.29%
COc1ccc(-c2nc(Cn3c(SCc4cccc(Cl)c4)nc4ccncc43)c(C)o2)cc1	inactive: -15.8%
Cc1ccc(Sc2c(C)nn(C(=O)COc3ccccc3)c2C)cc1	inactive: -14.1%
Cn1cnc(S(=O)(=O)N2CCC(C(=O)NCc3ccccc3)CC2)c1	inactive: -0.51%
CC1=C(c2ccc(F)cc2)S(=O)(=O)N=C1N1CCC(C(=O)NCCc2ccco2)CC1	inactive: 4.22%
CS(=O)(=O)N1CCc2cc(S(=O)(=O)NCc3ccccc3Cl)ccc21	inactive: -0.997%
COc1ccc2[nH]c(=O)c(CN(C(=O)c3cccc(Cl)c3)c3ccccc3OC)cc2c1	inactive: -9.61%
CC(=O)Nc1ccccc1OCc1cc(=O)n2c3c(sc2n1)CCCC3	inactive: 1.68%
Cn1c2ccccc2c2cnn(CC(=O)NCc3ccc(Cl)cc3)c(=O)c21	inactive: 15.4%
Cc1ccc(Cn2nc(C)c(NC(=O)c3cc(-c4ccc(F)cc4)on3)c2C)cc1	inactive: 17.9%
Cc1ccc(NC(=O)Cn2c(C)cc(C)c(C#N)c2=O)cc1	inactive: 15.1%

SMILES	activity change, negative = cytotoxicity
CCOc1ccc(NC(=O)Cn2c(=O)oc3cc(S(=O)(=O)NC4CCCC4)ccc32)cc1	inactive: -10.8%
CCOC(=O)c1c(S(=O)(=O)N2CCCC(C(=O)N(C)Cc3ccccc3)C2)c(C)n(C)c1C (stereo unspecified)	inactive: 2.41%
COc1cc(NC(=O)Cn2ccn(Cc3ccccc3OC)c(=O)c2=O)cc(OC)c1	inactive: 5.65%
O=C(CN1CCN(Cc2ccc(F)cc2Cl)S1(=O)=O)Nc1ccc(F)cc1	inactive: -5.11%
COc1ccccc1NC(=O)CSc1nc2ccccc2c(=O)n1CCC(=O)NC1CCCCC1	inactive: -7.83%
CCOc1ccc(NC(=O)CCCc2nc(-c3cccc(OC)c3)no2)cc1	inactive: 0.267%
O=C1CS(=O)(=O)C2(C(=O)Nc3ccccc32)N1c1cccc(Cl)c1 (stereo unspecified)	inactive: 1.04%
COc1cccc2c1cc1c(=O)n(CC(=O)N3CCN(c4ccccc4F)CC3)nc(C)n12	inactive: -2.99%
Cc1ccc(CNC(=O)c2sc3nc(C)cc(C)c3c2-n2cccc2)cc1	inactive: 27.7%
COc1ccc(-c2cc3nc(N)cc(=O)n3[nH]2)cc1	inactive: 20.5%
CCOC(=O)c1ccc(NC(=O)CSc2nc3ncc(Br)c(C)c3[nH]2)cc1	inactive: -11.9%
COCCCNC(=O)c1ccc(Cn2c(=O)c3ccccc3n(CC(N)=O)c2=O)cc1	inactive: -7.33%
Cc1cccc(C)c1OCc1cc(=O)n2c(-c3ccccc3)csc2n1	inactive: -5.1%
Cn1nc(-c2ccc(OCC(=O)Nc3cccc(C(F)(F)F)c3)cc2)c2ccccc2c1=O	inactive: 24.9%
COc1ccc(NC(=O)c2cc(S(=O)(=O)N3CCOCC3)cn2C)cc1Cl	inactive: -1.8%
O=C(NCCCc1nc2ccccc2n1Cc1ccc(F)cc1)C1CCCCC1	inactive: 4.83%
Cc1ccc(C)c(CSc2nc3c([nH]c4ccccc43)c(=O)n2C)c1	inactive: 12.3%
COCCNC(=O)CCn1c(=O)c2cc(OC)c(OC)cc2n(CC(=O)Nc2ccc(F)c(Cl)c2)c1=O	inactive: -4.48%
CC(=O)N1CCc2c(sc3c2c(=O)n(-c2ccccc2)c(=O)n3CC(=O)c2ccc(Cl)cc2)C1	inactive: -1.9%
O=C(NCc1cccc(F)c1)C1CCN(c2nc3ccccc3nc2C(F)(F)F)CC1	inactive: -6.49%
CCc1ccccc1Nc1nn2c(=O)c3ccc(C(=O)NCc4ccc(C)cc4)cc3nc2s1	inactive: -3.21%
Cc1cc(C)c(NC(=O)Cn2c(=O)n(-c3cccc(C(F)(F)F)c3)c(=O)c3c(C)c(C)sc32)c(C)c1	inactive: -5.92%
O=C(O)c1ccc(Nc2nc3ccccc3c3nncn23)cc1	inactive: -19.2%
COc1ccccc1NC(=O)C(Cc1ccccc1)NS(=O)(=O)c1ccc2c(c1)CCN2C(C)=O (stereo unspecified)	inactive: -6.36%
